Data reported in PubChem BioAssay AID743279 (National Center for Advancing Translational Sciences (NCATS), 2014).
Screen size: about 360,000 compounds; about 17,000 (4.7%) were called active. This list was built around the results that the source calls inconclusive (neither active nor inactive); the mix of calls is not that of the screen. Cut-off read from the data, not from the text of the source: active = activity change below about -50%; inconclusive = mostly about -30% to -49%; inactive = weaker than that.

assay: qHTS for Inhibitors of Inflammasome Signaling: IL-1-beta AlphaLISA Primary Screen; conditions: THP-1 LPS/ATP IL-1B secretion, 16 h; at 57.5 µM, stronger effect = lower value
Excerpt: Inflammasomes are a set of intracellular multi-protein complexes that enable autocatalytic activation of inflammatory caspases and drive the innate immune response to counter harmful agents. […] A qHTS assay, based on AlphaLISA technology, was developed to screen the Molecular Libraries Small Molecule Repository (MLSMR) to look for novel inflammasome inhibitors. The assay detects IL-1B using AlphaLISA anti-IL-1B acceptor and donor beads. A decreased emission signal, indicating reduced IL-1B secretion, is the desired outcome for this assay. NIH Chemical Genomics Center [NCGC] NIH Molecular Libraries Probe Centers Network [MLPCN] MLPCN Grant: MH095513 Assay Provider: Shyam Biswal Ph.D., Johns Hopkins University Immunity. 2012 Jul 27;37(1):85-95. PMID: 22819042 [2] Curr Pharm Des. 2012;18(16):2320-8. PMID: 22390695
Three microliters containing 3000 THP-1 cells were dispensed into the wells of solid, white, tissue culture treated Greiner 1,536-well plates. Library compounds and positive control, Glyburide, were pin-transferred (23 nL) by a Kalypsys pin-tool equipped with a 1,536-pin array, resulting in final compound concentration ranges of 2.5 nM to 57.5 uM. After 1 hr of cell culture incubation (37 °C, 5% CO2), 1 microL of 1 microg/mL lipopolysaccharide (250 ng/mL, final) and 5 mM ATP (1.25 mM, final) were added to stimulate the cells. After 16 hr of cell culture incubation with the compounds, 1.5 uL of anti-IL-1B acceptor beads (6 ug/mL, final) and biotinylated antibody (0.6 nM, final) were added to the plate, followed by a 1 hr incubation at ambient temperature. To detect the secreted IL-1B, 1.5 uL of AlphaLISA SA-Donor beads (24 ug/mL, final) were added, followed by 30 min of incubation in the dark at ambient temperature. The AlphaLISA signal was read by a PerkinElmer EnVision plate reader with an ultrasensitive luminescence detector and 1536 Plate HTS AlphaScreen aperture (excitation of 680nm and emission of 615nm).
% is set by controls: 0 for no effect and ±100 for the full control effect.

SMILES	activity change
O=C(Nc1ccc(S(=O)(=O)N2CCCCC2)cc1)c1ccccc1F	inconclusive: -40.9%
O=C(Nc1nnc(SCC(=O)N2CCCCC2)s1)c1ccccc1F	inconclusive: -35.9%
CCOc1cc(/C=C2\CCCC(C(=O)C(F)(F)F)=C2O)ccc1O	inconclusive: -38.4%
Cc1nn(-c2ccccc2)nc1C(=O)Nc1ccc2c(c1)OCCO2	inconclusive: -36.8%
Cc1nonc1OCCNCCNc1ccc([N+](=O)[O-])cc1Cl	inconclusive: -30.7%
CCOc1ccc(Nc2nc3ccccc3c(=O)s2)cc1	inconclusive: -40.2%
C[C@@H]1CN([C@H](C)CO)S(=O)(=O)c2ccc(C#C[C@@H](C)O)cc2O[C@@H]1CN(C)Cc1ccc(-c2ccccc2)cc1	inconclusive: -46.5%
CC1(C)Oc2ccc3ccc(=O)oc3c2/C(=C/Nc2ccccc2)C1=O	active: -58.9%
O=C(NCc1cccc(OC(F)(F)F)c1)C1CCC(=O)N(Cc2cccc(F)c2)C1 (stereo unspecified)	inactive: -1.26%
COc1ccc(OC)c(/C=N/c2oc(-c3ccco3)c(-c3ccco3)c2C#N)c1	inconclusive: -33.1%
CCOC(=O)C(C#N)=CN1CCN(C(=O)CCCl)c2ccccc21	inconclusive: -48.4%
CC(NC(=O)/C(C#N)=C/c1cn[nH]c1-c1ccccc1)c1ccccc1 (stereo unspecified)	inconclusive: -39.1%
CCN(CC)C(=O)CSC1=N/C(=C/c2ccco2)C(=O)N1c1ccc(OC)c(Cl)c1	active: -53.9%
COc1cccc(/C=C(/C(=O)OCC(=O)NC2CCCC(C)C2C)c2ccccc2)c1 (stereo unspecified)	active: -65.2%
O=C(/C(=N/N=C/c1ccc(O)c(O)c1)c1ccccc1)c1ccccc1	active: -75.7%
Cc1sc2nc(CN(Cc3ccccc3)C(=O)NC3CCCCC3)[nH]c(=O)c2c1C	inconclusive: -42.8%
CC1C(c2ccccc2)N(C)C(c2ccccc2)CC1(O)c1ccc(F)cc1 (stereo unspecified)	inconclusive: -45.7%
O=S(=O)(c1ccccc1)c1nc(-c2ccco2)oc1NCc1cccnc1	inconclusive: -34.1%
CNC(=O)c1cc(Oc2ccc(NC(=O)Nc3ccc(Cl)c(C(F)(F)F)c3)cc2)ccn1	active: -102%
CCC(=O)Nc1ccc(/C=C(\C(C)=O)C(=O)c2ccccc2)cc1	active: -98.3%
COc1cccc(-c2cc(-c3cccnc3)nc(N)c2C#N)c1	inconclusive: -31.3%

SMILES	activity change
Cc1ccccc1NC(=O)Cc1nc(COC(=O)c2nccnc2N)cs1	inactive: -17.7%
FC(F)(F)c1nc2ccccc2nc1N/N=C\c1ccccc1	inactive: 10.9%
COc1cccc2c1C(=O)c1c(O)c3c(c(O)c1C2=O)C[C@@](O)(C(C)=O)C[C@@H]3O[C@H]1C[C@H](N)[C@H](O)[C@H](C)O1	active: -110%
CCN(CC)C(=O)c1sc(NC(=O)C(Sc2ccccc2)c2ccccc2)c(C(=O)OC(C)C)c1C (stereo unspecified)	inactive: -18%
c1csc(CNc2nc(NCC3CCCCC3)c3sccc3n2)c1	inconclusive: -32.3%
CCOC(=O)CCNC(=O)Nc1ccc2nc(C)n(Cc3cccc(Cl)c3)c(=O)c2c1	inconclusive: -36.3%
O=C(CSc1ccc2nnc(-c3ccc(Cl)cc3)n2n1)N1CCCc2ccccc21	inactive: 0%
COc1cc(-c2nc3oc4ccccc4c(=O)c3c(=O)n2Cc2ccco2)cc(OC)c1OC	inconclusive: -33.5%
Cc1ccc(C)c(S(=O)(=O)N2CCN(C(=O)C3CCN(c4ncnc5sc(C)c(C)c45)CC3)CC2)c1	inconclusive: -43.5%
Cc1ccc(-c2csc(-c3c[nH]c4ccccc34)n2)cc1	inconclusive: -50%
Cc1ccn2c(CNCCCn3cccn3)c(C(=O)N3CCCCCC3)nc2c1	inconclusive: -40.6%
COCCNC(=O)CN1C(=O)NC2(CCOc3ccccc32)C1=O (stereo unspecified)	inactive: -6.75%
NC(=O)/C(=N\O)c1ccccc1	inconclusive: -33.6%
CC(C)OC(=O)c1ccc(NCc2cc(O)ccc2O)cc1Cl	inactive: 0%
C=CCOC(=O)c1sc(NC(=O)c2ccc(OC)cc2)nc1C	inactive: -1.68%
COc1cccc(NC(=O)NC2CCN(Cc3nnnn3Cc3ccc4c(c3)OCO4)CC2)c1	inconclusive: -31.7%
O=C(CNC(=O)Cn1ccc2ccccc2c1=O)NCCCN1CCN(c2cccc(Cl)c2)CC1	inconclusive: -45.7%
CCN(CCCNC(=O)CCn1c(=O)[nH]c2ccccc2c1=O)c1cccc(C)c1	inactive: -13.6%
O=C(c1ccc(N2CCOCC2)c([N+](=O)[O-])c1)N1CCCC(C(F)(F)F)C1 (stereo unspecified)	inactive: -6.11%
CCN(CC)S(=O)(=O)c1cc(NC(=O)CN2C(=O)NC3(CCCc4ccccc43)C2=O)ccc1C (stereo unspecified)	inconclusive: -42.9%
